SMILES strings stand for the structures. About 550 (1.1%) of roughly 48,000 compounds were called active. About 4% were inconclusive and are not listed. Cut-off read from the data, not from the text of the source: active = potency below about 15 µM; inconclusive = mostly about 16 µM to 33 µM; inactive = weaker than that. Some of the results follow.
Potency is the fitted concentration of half-maximal effect.

UniProt P04062, sequence (P04062 whole entry, looked up): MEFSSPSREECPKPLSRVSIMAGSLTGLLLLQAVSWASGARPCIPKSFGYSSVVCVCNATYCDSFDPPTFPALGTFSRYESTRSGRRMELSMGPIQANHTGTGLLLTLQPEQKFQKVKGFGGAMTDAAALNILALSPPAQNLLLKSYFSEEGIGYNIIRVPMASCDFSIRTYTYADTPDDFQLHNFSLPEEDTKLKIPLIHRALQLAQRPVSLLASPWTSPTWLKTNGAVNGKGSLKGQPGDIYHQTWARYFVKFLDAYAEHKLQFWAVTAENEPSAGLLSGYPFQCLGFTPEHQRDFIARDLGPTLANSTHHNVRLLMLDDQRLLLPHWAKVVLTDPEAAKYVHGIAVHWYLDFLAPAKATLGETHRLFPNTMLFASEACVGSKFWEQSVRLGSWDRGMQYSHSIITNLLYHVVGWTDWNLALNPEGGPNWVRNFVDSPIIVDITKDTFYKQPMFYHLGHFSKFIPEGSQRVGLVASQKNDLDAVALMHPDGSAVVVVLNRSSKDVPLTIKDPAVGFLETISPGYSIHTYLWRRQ

This assay has as its target Lysosomal acid glucosylceramidase (Homo sapiens) (UniProt P04062). Put plainly: Glucocerebrosidase.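 Note: the screen sought inhibitors.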 Conditions: purified enzyme, resorufin glucoside fluorescence (screen aimed at inhibitors), 20 min; series mostly up to 77 µM. Put shortly:
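Compounds titrated against 0.2 nM normal enzyme, 30 uM resorufin beta-D-glucopyranoside substrate, citrate/phosphate buffer with taurocholate and tween-20, pH 5.9. Reaction ran 20 min at room temperature; fluorescence (Ex 548/Em 600) gave AC50.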
Turning to `COc1ccccc1C(=O)NC(C)c1nc2ccccc2[nH]1` (stereo not given), the Potency was inactive: > 76.9 µM.
With `O=C(Nc1c(Cl)cccc1Cl)C1CCC1`, the Potency is inactive: > 76.9 µM.
`CN(C)c1nc(Nc2ccccc2)nc(Oc2ccc(=O)[nH]n2)n1`: the Potency is inactive: > 76.9 µM.
As to `Cc1nc2ccccn2c1P(=Nc1ccccc1)(N(C)C)N(C)C`, the Potency is inactive: > 76.9 µM.
`O=C(O)c1ccc2c(c1)C(=O)N(c1cc(C(=O)O)ccc1Br)C2=O`: the Potency is inactive: > 76.9 µM.
`O=C(CSc1nnc(-c2ccncc2)o1)Nc1ccccc1Cl`: the Potency is inactive: > 76.9 µM.
As to `COC(=O)c1ccc2c(c1)NC(=O)C(N1CCCC1)S2` (stereo not given), the Potency is inactive: > 76.9 µM.
In the case of `CCC1CCCCN1C(=O)C1CC(c2cc(Cl)c(OC)cc2OC)=NO1` (stereo not given), the Potency is inactive: > 76.9 µM.
With `COC(=O)C1=C(C)NC(=O)NC1c1cc(Cl)ccc1OC` (stereo not given), the Potency was inactive: > 76.9 µM.
For the molecule `CNC(=O)CCC(=O)Nc1ccc(C(=O)OC)cc1`, the Potency is inactive: > 76.9 µM.
The value for `O=C(COC(=O)c1cccs1)c1ccccc1` was inactive: > 76.9 µM; that for `COCC(C)NC(=O)C1CC(c2cccc(Br)c2)=NO1` (stereo not given) was inactive: > 76.9 µM.
Take `Cn1c(CCNC(=O)OC(C)(C)C)n[nH]c1=S`: the Potency was inactive: > 76.9 µM.
As for `COc1ccc(OC)c2[nH]c(=O)c(CCNC(=O)c3ccc(S(=O)(=O)N4CCCCC4)cc3)cc12`, the Potency is inactive: > 76.9 µM.
With `CC(C)(C)NC(=O)C(c1ccccc1)N(C(=O)c1csnn1)C1CC1` (stereo not given) the figure was inactive: > 76.9 µM; with `COc1ccc(-n2nc3ccc(NS(C)(=O)=O)cc3n2)cc1Cl`, “inactive”.
Turning to `C/C(N)=C(/C#N)C(=O)COC(=O)COc1ccc(Cl)cc1`, the Potency was inactive: > 76.9 µM.
Regarding `Cn1c(=O)c2cn(-c3cccc4ccccc34)cc2n(C)c1=O`, the Potency is inactive: > 76.9 µM.
With `CCOc1ccc(C2C=C(c3ccc(C)cc3)Nc3nnnn32)cc1` (stereo not given) the entry was “inactive”; with `O=C1CNCc2[nH]c3ccccc3c2N1c1ccccc1`, “inactive”; with `Cc1cc(SCC(=O)Nc2ccccc2)nc(C)n1`, inactive: > 76.9 µM.
With `CCOc1ncccc1C(=O)OCc1ccc(C(=O)OC)o1` the figure was inactive: > 76.9 µM.
Consider `C=CCn1c(SCC(=O)Nc2c(C)nn(Cc3ccccc3)c2C)nnc1C(O)c1ccccc1` (stereo not given), for which the Potency is inactive: > 76.9 µM.
For `COc1ccc(CN2CC(C(=O)NCc3ccccn3)CC2=O)cc1` (stereo not given), the Potency is inactive: > 76.9 µM.
As to `Cc1ccc(C(=O)NCCCNCCCN(C)C)cn1`, the Potency is inactive: > 76.9 µM.
As for `C=CCSc1nnc(NC(=O)CSc2nnc(C)s2)s1`, the Potency is inactive: > 76.9 µM.
Turning to `COc1ccc(NC(=O)N2CCCC(c3nc(-c4ccc(C(C)C)cc4)no3)C2)cc1` (stereo not given), the Potency result is “inactive”.
For the molecule `CCOC(=O)N1CCN(C(=O)CCn2nc(-c3ccccc3)ccc2=O)CC1`, the Potency is inactive: > 76.9 µM.
Take `COc1ccc(-n2nc(C(=O)NCC(=O)NCc3ccco3)c3ccccc3c2=O)cc1Cl`: the Potency was inactive: > 76.9 µM.
The value for `COC(=O)c1ccc(-c2ccc(C(=O)N3CCCN(C)CC3)cc2)cc1` was inactive: > 76.9 µM; that for `C=CCNC(=O)N[C@@H](CCSC)C(=O)OC` was inactive: > 76.9 µM.
Take `COc1cccc(CNC(=O)CCn2c(=O)oc3ccccc32)c1`: the Potency was inactive: > 76.9 µM.
Regarding `Cc1ccc(NC(=O)CS(=O)CC(=O)NCC2OCCc3ccccc32)c(C)c1` (stereo not given), the Potency is inactive: > 76.9 µM.
For `CCOC(=O)CN1C(=O)c2ccccc2C1=O`, the Potency is inactive: > 76.9 µM.
In the case of `O=C1CCCc2nc(N3CCN(Cc4ccccc4)CC3)ncc21`, the Potency was inactive: > 76.9 µM.
As to `COc1ccc(C(c2nnnn2Cc2ccc(F)cc2)N2CCN(c3ccc(OC)cc3)CC2)cc1` (stereo not given), the Potency is inactive: > 76.9 µM.
As for `Cc1cc(Nc2ncc(Cl)cc2Cl)n(-c2ccccn2)n1`, the Potency was inactive: > 76.9 µM.
As for `Cn1c(SCc2ccccc2F)nc2cccnc21`, the Potency was inactive: > 76.9 µM.
The value for `COc1cccc2cc(-c3nnc(SCC(=O)Nc4cc(C(F)(F)F)ccc4Cl)n3N)oc12` was inactive: > 76.9 µM; that for `COC(=O)c1cc(OC)c(OC)cc1NC(=O)Nc1ccccc1OC` was inactive: > 76.9 µM.
Turning to `Cc1cc(NC(=O)C2CCCCC2C(=O)O)no1` (stereo not given), the Potency was inactive: > 76.9 µM.
On to `CC(=NCc1ccco1)c1c(C)[nH]n(-c2nc3ccccc3s2)c1=O`, for which the Potency is inactive: > 76.9 µM.
Turning to `O=S(=O)(Cc1ccccc1Cl)N1CCN(Cc2ccc3c(c2)OCO3)CC1`, the Potency is inactive: > 76.9 µM.
In the case of `O=C(CSc1nnc(-c2ccoc2)o1)N1CCOCC1`, the Potency was inactive: > 76.9 µM.
With `CCCC(=O)Nc1ccc(NC(=O)C2CC2)cn1`, the Potency was inactive: > 76.9 µM.
For `CCCCOCCCNC(=O)N[C@@H](CCSC)C(=O)OC`, the Potency is inactive: > 76.9 µM.
With `Cn1c(NCc2c[nH]c3ccccc23)nc2ccccc21` the figure was inactive: > 76.9 µM; with `COC(=O)Cc1cc(=O)n2[nH]c(C)nc2n1`, inactive: > 76.9 µM; with `O=C(CN(C(=O)CNS(=O)(=O)c1ccccc1)C1CCCC1)NCc1ccco1`, inactive: > 76.9 µM.
With `COCCOC(=O)C1=C(C)N(Cc2ccccc2)C(=O)NC1c1cccc(OC)c1OC` (stereo not given) the figure was inactive: > 76.9 µM; with `CCCCCCn1c(N2CCN(c3cccc(Cl)c3)CC2)nc2c1c(=O)[nH]c(=O)n2C`, inactive: > 76.9 µM; with `Cc1nc2nc[nH]n2c(=O)c1NC(=O)c1c(-c2ccccc2Cl)noc1C`, inactive: > 76.9 µM.
With `Nn1c(SCC(=O)Nc2ccc(F)cc2)nnc1-c1ccccn1`, the Potency is inactive: > 76.9 µM.
Consider `O=C(CN1C(=O)c2ccccc2S1(=O)=O)Nc1ccccc1C(=O)NCc1ccco1`, for which the Potency is inactive: > 76.9 µM.
With `CC(NC(=O)CN1CCC(C(N)=O)CC1)c1ccccc1` (stereo not given) the figure was inactive: > 76.9 µM; with `COc1ccc(NC(C)=O)cc1NC(=O)CSc1nc2ncccc2[nH]1`, inactive: > 76.9 µM.
As for `Cc1cc(NC(=O)c2ccco2)ncc1NC(=O)CCc1ccccc1`, the Potency was inactive: > 76.9 µM.
`CCN(CC)c1ncccc1C(=O)NCc1cccs1`: the Potency is inactive: > 76.9 µM.
The value for `O=C(c1cc2cc(Cl)ccc2oc1=O)N1CCCC1` was inactive: > 76.9 µM.
Consider `COc1ccc(CCN(C)C(=O)CN2C(=O)c3ccccc3S2(=O)=O)cc1OC`, for which the Potency is inactive: > 76.9 µM.
